Results: PubChem BioAssay AID1508623 (National Center for Advancing Translational Sciences (NCATS), 2021)
In all, about 48,000 compounds went through this assay and about 450 (0.94%) were called active. Another 19% or so got no clear call; they are omitted. Calls come from the whole dose curve; as a rule, active = well fitted inhibition curve with a large enough effect; inconclusive = small, poorly fitted or top-dose-only effect; inactive = no such curve, though single readings can be large or run the other way. The list shows a part of the results.

Assay: Primary qHTS for Identification of Small Molecule Inhibitors of Huntingtin Promoter Activity; note: nearly all actives have a fitted effect of over 50% in size
Details: HEK293 HTT promoter firefly luciferase reporter (activity 0% = vehicle and -100% = no light), 24 h; series mostly up to 57.5 µM; activity change, negative = inhibition: at the top concentration
In short: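 Firefly luciferase readout (Dual-Glo, 10 min RT) after 24 h, 37 °C compound exposure (final up to 57.5 uM) of HEK293 reporter cells cultured 24 h beforehand; PTC124 at 50 uM final as control inhibitor; activity scaled vehicle 0%, zero RLU -100%.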

Activity change, negative = inhibition, inactive:
COCCCNC(=O)C1CCN(c2cc(C)nc3c(-c4ccc(Cl)cc4)c(C)nn23)CC1 -7.81%
CCN(CC)CCCNC(=O)c1ccc2c(Cl)c3c(nc2c1)CCCC3 -8.38%
CCOC(=O)Cn1c(=O)n(-c2ccccc2OC)c2nc(-c3ccc(C(C)C)cc3)nc(C(N)=O)c21 -7.57%
CC(C)CC1Nc2ccc(C(=O)NCCCOC(C)C)cc2NC1=O (stereo unspecified) -17.1%
CCCNC(=O)CSc1nc(-c2ccc(OC)cc2)cc(C(F)(F)F)n1 -0.01%
COc1ccccc1N1CCN(CC(O)COc2cc(OC)c(OC)c(OC)c2)CC1 (stereo unspecified) 12%
CNCC[C@@H](Oc1ccccc1C)c1ccccc1 1.69%
COc1ccc2c(CNCc3cccs3)c(C(=O)O)n(Cc3ccccc3F)c2c1 -14.5%
COc1ccc(CC(=O)N2CCc3cc(OC)c(OC)cc3C2COc2ccc(F)cc2)cc1OC (stereo unspecified) -17.2%
CN(C)c1ccc(NC(=O)CSC2=Nc3ccccc3C3=NC(CCC(=O)NCc4cccs4)C(=O)N23)cc1 (stereo unspecified) -27.4%
Cc1ccc(C(=O)C(C)CN2CCCCC2)cc1 (stereo unspecified) 4.38%
Cn1c(SCC(=O)Nc2nc3ccccc3s2)ncc(C(=O)Nc2ccc(F)cc2)c1=O 9.26%
COc1cccc(C(=O)Nc2cccc(C(=O)OCc3cc(=O)n4c(C)csc4n3)c2)c1 -17.1%
Cc1c(C(=O)NC(C)c2ccccc2)sc2nc3n(c(=O)c12)CCCC3 (stereo unspecified) 37.5%
NS(=O)(=O)c1ccc2nc(NC(=O)COc3ccc(Cl)cc3Cl)sc2c1 -8.95%
CCOC(=O)COc1ccc(C)cc1C(=O)c1ccn2nc(-c3ccc(F)cc3)cc2n1 -10.6%
CC1CCN(C(=O)c2cccc(NC(=O)c3nsc4ccccc34)c2)CC1 38.6%
COc1ccccc1Cc1nc2ccccc2nc1SCC(=O)NCc1ccccc1Cl -2.61%
CN1CCc2nc3sc(C(=O)Nc4ccccc4C(F)(F)F)c(N)c3cc2C1 -12.1%
CCCC1=Nc2cc(C(=O)N3CCC(C)CC3)ccc2Sc2ccc(C)cc21 -12.9%
Cc1ccc2c(=O)c(C(=O)c3cccc(Cl)c3)cn(CC(=O)Nc3ccccc3C(F)(F)F)c2n1 -4.56%
COc1ccccc1C(=O)OCc1cc(=O)n2nc(C(C)C)sc2n1 -1.34%
CCOC(=O)CC(=O)CSc1nc2ccccc2c(=O)n1CCc1ccc(S(N)(=O)=O)cc1 -20.7%
CC1CCCCN1CCCNC(=O)c1cc(Sc2ccc(Cl)cc2)nc2ccccc12 (stereo unspecified) -12.3%
COc1ccc(-c2noc(-c3ccc(NCC4CCCO4)c([N+](=O)[O-])c3)n2)cc1OC (stereo unspecified) -3.98%
COc1ccccc1CNC(=O)c1oc2ccc3c(c2c1C)C(=O)CC(C)(C)O3 -2.89%
CC(=O)Nc1ccc(NC(=O)CCS(=O)(=O)c2ccc3c(c2)CC(=O)N3C)cc1 -8.28%
CCOC(=O)C1CCC(CN(Cc2cccc(Br)c2)S(=O)(=O)c2ccc(Cl)cc2)CC1 (stereo unspecified) -25.5%
CCOC(=O)N1CCc2c(sc3c2C(=O)NC(c2ccccc2F)N3)C1 (stereo unspecified) -13.6%
COc1ccc(N2CC(NC(=O)COc3ccc4ccccc4c3)CC2=O)cc1OC (stereo unspecified) -15.5%
CCN1C(=O)C(Cc2nc3ccccc3c(=O)n2-c2ccc(OC)cc2)c2ccccc21 (stereo unspecified) 7.95%
Cc1ccc(-n2c(=O)c3c4c(sc3n(CC(=O)Nc3ccccc3C)c2=O)CCCCC4)cc1C -9.24%
COc1ccccc1CNc1nccn(-c2ccccc2)c1=O 9.16%
CCC(C)NC(=O)c1sc2nc(C)c(C(=O)Nc3ccc(C)cc3C)c(-c3ccccc3Cl)c2c1N (stereo unspecified) -26.7%
CCOC(=O)c1cccc2c1N[C@@H](c1ccc(F)cc1)[C@H]1CC=C[C@@H]21 -15.7%
Cn1cc(S(=O)(=O)N2CCCCC2)cc1C(=O)Nc1cccc(C#N)c1 -14.2%
Cc1ccc(CNC(=O)Cn2c(=O)n(Cc3ccc(F)cc3)c(=O)c3sc4ccccc4c32)cc1 -12.3%
O=C(Nc1ccc(Cl)cc1)N1CCC(c2ccccc2)C1 (stereo unspecified) 41.6%
O=C(CCCCC(=O)Nc1c(I)cc(I)c(C(=O)O)c1I)Nc1c(I)cc(I)c(C(=O)O)c1I -2.91%
CCCN(C(=O)Cn1ncc2c([nH]c3ccc(C)cc32)c1=O)c1ccccc1C 0.885%
COc1cccc(N2CC(NC(=O)/C=C\c3ccc(OC)c(OC)c3)CC2=O)c1 (stereo unspecified) 1.08%
CCOc1ccccc1NC(=O)c1c(NCc2sccc2C)sc2c1CCC(C)C2 (stereo unspecified) -2.03%
CCC(C)NC(=O)CN1C(=O)COc2ccc(S(=O)(=O)N3CCOCC3)cc21 (stereo unspecified) -6.49%
O=C(O)c1ccc2c(c1)N(Cc1ccc(F)cc1Cl)C(=O)c1ccccc1S2 -17.4%
COc1ccc(NC(=O)CCS(=O)(=O)c2nc(-c3ccc4c(c3)OCO4)cc(C(F)(F)F)n2)c(OC)c1 -6.11%
CC(CNC(=O)CCCn1c(=O)c2cccn2c2ccccc21)c1ccccc1 (stereo unspecified) -11.5%
CC(C)N(Cc1ccccc1)C(=O)CN1C(=O)COc2ccc(S(=O)(=O)N3CCCCCC3)cc21 -14.4%
CCN(C(=O)c1cnc(N2CCOCC2)c2ccccc12)c1cc(C)ccc1C -11.2%
CCOc1ccccc1NC(=O)c1ccc2c(Cl)c3c(nc2c1)CCCC3 0.767%
Nc1nc(=O)n([C@H]2CSC(CO)O2)cc1F (stereo partly specified) -2.08%
CCOc1ccc(-c2nnc(SCC(=O)NCCc3ccccc3)nc2-c2ccc(OCC)cc2)cc1 4.26%
COc1cccc(CNc2nc3c(-c4cccc(C)c4)nnn3c3ccccc23)c1 1.94%
CC(=O)Nc1ccc(NC(=O)CCC(=O)c2ccc(C)cc2)cc1 -8.47%
O=C(OCc1cc(=O)n2nc(-c3cccs3)sc2n1)c1ccccc1Br -2.6%
Cc1cc(NC(=O)C(C)(C)Oc2ccc(Cl)cc2)cc(-c2nc3ncccc3o2)c1O -10.5%
Cc1cc(C)cc(C(=O)Nc2nnc3n2CCS3)c1 15.3%
COC(=O)c1cc(NC(=O)c2ccc3c(c2)N(Cc2cccc(Cl)c2)C(=O)c2ccccc2S3=O)cc(C(=O)OC)c1 (stereo unspecified) -12%
O=C(CSc1ncc2c(n1)-c1cc(Cl)ccc1N(Cc1ccccc1F)S2(=O)=O)Nc1cccc(C(F)(F)F)c1 -20.4%
CCCn1c2ccccc2c2cnn(CC(=O)Nc3ccc(C)cc3Br)c(=O)c21 -8.6%
Cc1cc2ccccc2n2c(SCC(=O)Nc3cccc(C(F)(F)F)c3)nnc12 -17.7%
CNc1oc(-c2ccc(COc3ccc(C)cc3)o2)nc1C#N -22.4%
CCOc1ccccc1NC(=O)c1cnc(N2CCOCC2)c2ccccc12 -1.22%
COc1ccc(OCc2nc3c4c(-c5ccc(OC)cc5)c(-c5ccc(OC)cc5)oc4ncn3n2)cc1 -7.13%
CCc1ccc(NC(=O)c2sc3nc(C)c(Cl)c(C)c3c2NC(=O)c2ccccc2)cc1 14.5%
Cc1cccc(CNC(=O)c2sc3ncnc(N(C)C4CCCCC4)c3c2C)c1 -28.2%
O=C(C1CC1)N1CCN(c2nc3c(F)cc(F)cc3s2)CC1 37.8%
CCN(CC)c1nc(-c2ccccc2Cl)c2cc(Br)ccc2n1 -7.66%
Cc1nn(-c2ccccc2)c2nc(C3CC3)cc(C(=O)NCc3ccccc3Cl)c12 -18.2%
CC(C)Nc1ccc(-c2nc(-c3ccccn3)no2)cc1[N+](=O)[O-] 13.7%
O=S(=O)(c1ccc(-c2cnc(C3CC3)o2)cc1)N1CCN(c2cccc(Cl)c2)CC1 9.69%
CCOc1ccccc1C(=O)Nc1cc(-c2ccc(C)cc2)no1 10.7%
Cc1cccc(S(=O)Cc2ccc(C(=O)NC3CCCCCC3)o2)c1 (stereo unspecified) -3.92%
Cc1ccc(C(=O)Nc2ccc(C(=O)OCc3cc(=O)n4c5c(sc4n3)CCCC5)cc2)cc1 -18.7%
Cc1ccc2c(c1)c(=O)c(S(=O)(=O)c1ccc(C)c(C)c1)cn2CC(=O)Nc1ccccc1 -22.3%
CCc1cccc(C)c1NC(=O)C1=C(C)C(=O)OC12CCC(C)CC2 (stereo unspecified) -6.91%
CC[N+](CC)(CCNC(=O)C(=O)NCC[N+](CC)(CC)Cc1ccccc1Cl)Cc1ccccc1Cl 12.7%
COc1ccccc1Nc1ncc(C(=O)Nc2ccc(OC)c(OC)c2)c2ccccc12 -9.93%
Cc1ccc(Nc2ncnc3c2nc2n3CCCC2)c(Br)c1 -36.2%
COc1ccccc1CNC(=O)c1cnc2sc(N3CCOCC3)nn2c1=O 8.99%
COC(=O)c1cc(S(=O)(=O)N2CCN(c3ccc(F)cc3)CC2)cn1C -22.4%
COc1ccccc1CNC(=O)c1ccc2c(c1)CCN2S(=O)(=O)c1ccc(Cl)cc1 -30.6%
COc1ccc2nc(N(Cc3cccnc3)C(=O)COc3ccccc3)sc2c1 -3.78%
Cn1cc(C(=O)NCCc2ccc(Cl)cc2)c(=O)c2cc(S(=O)(=O)N3CCCCC3)ccc21 -17.8% [at 11.5 µM]
COC(=O)c1ccc(Cn2nnc3c(=O)[nH]c(C4CCCN(S(=O)(=O)c5ccccc5)C4)nc32)cc1 (stereo unspecified) -1.19%
CCCC(CCC)C(=O)Nc1cccc(-c2nc3cccnc3s2)c1 -2.55%
CCc1ccccc1NC(=O)N1CCC2(CC1)Oc1ccccc1C(=O)N2Cc1ccccc1F -13.2%
CC(=O)Nc1ccc(NS(=O)(=O)c2ccc3[nH]c4c(c3c2)CCCCC4)cc1 -35.6%
CCCCC1C(=O)N(c2ccccc2)N(c2ccccc2)C1=O -2.07%
COc1cc(OC)c(NC(=O)N2CCN3CCCCC3C2)cc1Cl (stereo unspecified) -4.39%
CCOC(=O)c1ccccc1NC(=O)CSc1cc(C)[nH]c(=O)n1 -3.65%
COc1ccc(Cl)cc1NC(=O)CCN1C(=O)c2ccccc2Sc2ncccc21 -14.7%
CC(=O)N1CCc2cc(S(=O)(=O)NC(CC(C)C)C(=O)NCCc3ccccc3)ccc21 (stereo unspecified) -9.02%
CC(C)C(=O)N1c2nc(C(C)C)nn2C2(CCCCC2)[C@@H]2CCCC[C@@H]21 -0.391%
Cc1cc(C)c2c(=O)cc(CSc3nnc(-c4ccccc4)n3C)[nH]c2c1 -20.1%
Cc1ccc(Nc2nc3ccccc3c3nnc(C)n23)cc1Cl -3.06%
COc1ccc(OC)c(Nc2ncc3c(n2)CCN(Cc2cc(OC)c(OC)c(OC)c2)C3)c1 -24.4%
